# Measurements reported in the supplement of paper PMC8728848.
# Some of the results follow.
# B1: CC1G-11630 (Coprinopsis cinerea), A8P462 (protein)
# chain: MTTEAKIKLKAVVYWELVFDYDNSSNTGEITQSYTVKISQTSTRSTFASEVSTTTIDTLTKNNQEVDVGASYGAISANVSASWEHSEEVNNMLEKTTQTSTEDTYTVETEETRSYTIGPGGMLSLFQKHFSGPGMHVAFDVFTTDLELAKERTEIDIDVDVEAIRFVREIRVVYTDIMSEAPGDHVREINGKNPDINYGFNGKFVWLVPEQTRKTAQALTNVEFVSQAESDDRYWDLAAGAGGSNRYLIPVYDTNNKDKIYELALWRSDSYITHDKVKAAGWSGTTGDINSGRGGTYLNLVWKTRHAY
# Assays:
# Assay in all cases: glycan array binding signal (z-score within array); higher = stronger binding
# Details in all cases: glycan notation: IUPAC condensed, linker removed
# [1] = biological target: Fuc(a1-2)Gal
# How it was run: (§1)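 Columns mapping to the same glycan were averaged after glycan names were converted to IUPAC-condensed notation. The data come from 3228 arrays in the Consortium for Functional Glycomics database, limited to those with an available protein sequence. Binding is reported as a within-array Z-score averaged across arrays of one protein sequence and across linkers.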
# [2] = biological target: Fuc(a1-2)Gal(b1-3)GalNAc
# How it was run: as §1
# [3] = biological target: Fuc(a1-2)Gal(b1-3)GalNAc(a1-3)[Fuc(a1-2)]Gal(b1-4)Glc
# How it was run: as §1
# [4] = biological target: Fuc(a1-2)Gal(b1-3)GalNAc(a1-3)[Fuc(a1-2)]Gal(b1-4)GlcNAc
# How it was run: as §1
# [5] = biological target: Fuc(a1-2)Gal(b1-3)GalNAc(b1-3)Gal
# How it was run: as §1
# [6] = biological target: Fuc(a1-2)Gal(b1-3)GalNAc(b1-3)Gal(a1-4)Gal(b1-4)Glc
# How it was run: as §1
# [7] = biological target: Fuc(a1-2)Gal(b1-3)GalNAc(b1-4)[Neu5Ac(a2-3)]Gal(b1-4)Glc
# How it was run: as §1
# [8] = biological target: Fuc(a1-2)Gal(b1-3)GlcNAc
# How it was run: as §1
# [9] = biological target: Fuc(a1-2)Gal(b1-3)GlcNAc(b1-2)Man(a1-3)[Fuc(a1-2)Gal(b1-3)GlcNAc(b1-2)Man(a1-6)]Man(b1-4)GlcNAc(b1-4)GlcNAc
# How it was run: as §1
# [10] = biological target: Fuc(a1-2)Gal(b1-3)GlcNAc(b1-2)Man(a1-3)[Fuc(a1-2)Gal(b1-3)GlcNAc(b1-2)Man(a1-6)]Man(b1-4)GlcNAc(b1-4)[Fuc(a1-6)]GlcNAc
# How it was run: as §1
# [11] = biological target: Fuc(a1-2)Gal(b1-3)GlcNAc(b1-3)Gal(b1-4)Glc
# How it was run: as §1
# [12] = biological target: Fuc(a1-2)Gal(b1-3)GlcNAc(b1-3)GalNAc
# How it was run: as §1
# [13] = biological target: Fuc(a1-2)Gal(b1-3)GlcNAc(b1-3)[Fuc(a1-2)Gal(b1-3)GlcNAc(b1-6)]GalNAc
# How it was run: as §1
# [14] = biological target: Fuc(a1-2)Gal(b1-3)GlcNAc(b1-3)[Gal(b1-4)GlcNAc(b1-6)]Gal(b1-4)Glc
# How it was run: as §1
# [15] = biological target: Fuc(a1-2)Gal(b1-3)GlcNAc(b1-3)[Neu5Ac(a2-6)Gal(b1-4)GlcNAc(b1-6)]Gal(b1-4)Glc
# How it was run: as §1
# [16] = biological target: Fuc(a1-2)Gal(b1-3)GlcNAc6S
# How it was run: as §1
# [17] = biological target: Fuc(a1-2)Gal(b1-3)[Fuc(a1-4)]GlcNAc
# How it was run: as §1
# [18] = biological target: Fuc(a1-2)Gal(b1-3)[Fuc(a1-4)]GlcNAc(b1-2)Man(a1-3)[Fuc(a1-2)Gal(b1-3)[Fuc(a1-4)]GlcNAc(b1-2)Man(a1-3)]Man(b1-4)GlcNAc(b1-4)GlcNAc
# How it was run: as §1
# [19] = biological target: Fuc(a1-2)Gal(b1-3)[Fuc(a1-4)]GlcNAc(b1-2)Man(a1-3)[Fuc(a1-2)Gal(b1-3)[Fuc(a1-4)]GlcNAc(b1-2)Man(a1-6)]Man(b1-4)GlcNAc(b1-4)[Fuc(a1-6)]GlcNAc(b1-4)[Fuc(a1-6)]GlcNAc
# How it was run: as §1
# [20] = biological target: Fuc(a1-2)Gal(b1-3)[Fuc(a1-4)]GlcNAc(b1-3)[Fuc(a1-3)[Gal(b1-4)]GlcNAc(b1-6)]Gal(b1-4)Glc
# How it was run: as §1
# [21] = biological target: Fuc(a1-2)Gal(b1-3)[Fuc(a1-4)]GlcNAc(b1-3)[Gal(b1-4)GlcNAc(b1-6)]Gal(b1-4)Glc
# How it was run: as §1
# [22] = biological target: Fuc(a1-2)Gal(b1-4)Fuc(a1-3)]GlcNAc(b1-2)Man(a1-3)[Fuc(a1-2)Gal(b1-4)[Fuc(a1-3)]GlcNAc(b1-2)Man(a1-6)]Man(b1-4)GlcNAc(b1-4)GlcNAc
# How it was run: as §1
# [23] = biological target: Fuc(a1-2)Gal(b1-4)Glc
# How it was run: as §1
# [24] = biological target: Fuc(a1-2)Gal(b1-4)Glc6S
# How it was run: as §1
# [25] = biological target: Fuc(a1-2)Gal(b1-4)GlcNAc
# How it was run: as §1
# [26] = biological target: Fuc(a1-2)Gal(b1-4)GlcNAc(b1-2)Man
# How it was run: as §1
# [27] = biological target: Fuc(a1-2)Gal(b1-4)GlcNAc(b1-2)Man(a1-3)[Fuc(a1-2)Gal(b1-4)GlcNAc(b1-2)Man(a1-6)]Man(b1-4)GlcNAc(b1-4)GlcNAc
# How it was run: as §1
# [28] = biological target: Fuc(a1-2)Gal(b1-4)GlcNAc(b1-2)Man(a1-3)[Fuc(a1-2)Gal(b1-4)GlcNAc(b1-2)Man(a1-6)]Man(b1-4)GlcNAc(b1-4)[Fuc(a1-6)]GlcNAc
# How it was run: as §1
# [29] = biological target: Fuc(a1-2)Gal(b1-4)GlcNAc(b1-2)[Fuc(a1-2)Gal(b1-4)GlcNAc(b1-4)]Man(a1-3)[Fuc(a1-2)Gal(b1-4)GlcNAc(b1-2)Man(a1-6)]Man(b1-4)GlcNAc(b1-4)GlcNAc
# How it was run: as §1
# [30] = biological target: Fuc(a1-2)Gal(b1-4)GlcNAc(b1-3)Gal(b1-4)GlcNAc
# How it was run: as §1
# [31] = biological target: Fuc(a1-2)Gal(b1-4)GlcNAc(b1-3)Gal(b1-4)GlcNAc(b1-2)Man(a1-3)[Fuc(a1-2)Gal(b1-4)GlcNAc(b1-3)Gal(b1-4)GlcNAc(b1-2)Man(a1-6)]Man(b1-4)GlcNAc(b1-4)GlcNAc
# How it was run: as §1
# [32] = biological target: Fuc(a1-2)Gal(b1-4)GlcNAc(b1-3)Gal(b1-4)GlcNAc(b1-3)Gal(b1-4)GlcNAc
# How it was run: as §1
# [33] = biological target: Fuc(a1-2)Gal(b1-4)GlcNAc(b1-3)GalNAc
# How it was run: as §1
# [34] = biological target: Fuc(a1-2)Gal(b1-4)GlcNAc(b1-3)[Fuc(a1-2)Gal(b1-4)GlcNAc(b1-6)]GalNAc
# How it was run: as §1
# [35] = biological target: Fuc(a1-2)Gal(b1-4)GlcNAc(b1-3)[Fuc(a1-3)[Gal(b1-4)]GlcNAc(b1-6)]Gal(b1-4)Glc
# How it was run: as §1
# [36] = biological target: Fuc(a1-2)Gal(b1-4)GlcNAc(b1-6)GalNAc
# How it was run: as §1
# [37] = biological target: Fuc(a1-2)Gal(b1-4)GlcNAc6S
# How it was run: as §1
binder,measurement,setting,value
B1,glycan array binding signal (z-score),[1],-0.208
same,glycan array binding signal (z-score),[2],-0.617
same,glycan array binding signal (z-score),[3],-0.391
same,glycan array binding signal (z-score),[4],0.2
same,glycan array binding signal (z-score),[5],1.26
same,glycan array binding signal (z-score),[6],0.054
same,glycan array binding signal (z-score),[7],-0.101
same,glycan array binding signal (z-score),[8],-0.468
same,glycan array binding signal (z-score),[9],0.706
same,glycan array binding signal (z-score),[10],0.009
same,glycan array binding signal (z-score),[11],-0.226
same,glycan array binding signal (z-score),[12],0.001
same,glycan array binding signal (z-score),[13],0.024
same,glycan array binding signal (z-score),[14],-0.493
same,glycan array binding signal (z-score),[15],-0.347
same,glycan array binding signal (z-score),[16],-0.14
same,glycan array binding signal (z-score),[17],-0.476
same,glycan array binding signal (z-score),[18],2.22
same,glycan array binding signal (z-score),[19],-0.509
same,glycan array binding signal (z-score),[20],-0.679
same,glycan array binding signal (z-score),[21],-0.49
same,glycan array binding signal (z-score),[22],1.38
same,glycan array binding signal (z-score),[23],-0.319
same,glycan array binding signal (z-score),[24],0.335
same,glycan array binding signal (z-score),[25],-0.153
same,glycan array binding signal (z-score),[26],0.721
same,glycan array binding signal (z-score),[27],0.542
same,glycan array binding signal (z-score),[28],0.871
same,glycan array binding signal (z-score),[29],0.749
same,glycan array binding signal (z-score),[30],-0.822
same,glycan array binding signal (z-score),[31],-0.205
same,glycan array binding signal (z-score),[32],-0.439
same,glycan array binding signal (z-score),[33],-0.5
same,glycan array binding signal (z-score),[34],-0.036
same,glycan array binding signal (z-score),[35],-0.581
same,glycan array binding signal (z-score),[36],0.713
same,glycan array binding signal (z-score),[37],0.388
